# Among all 45,000 compounds or so, about 200 (0.44%) were called active. Inconclusive results (about 7%) are left out. The call rests on the fitted dose curve; in most records, active means well fitted activation curve with a large enough effect; inconclusive means small, poorly fitted or top-dose-only effect; inactive means no such curve, though single readings can be large or run the other way. Some of the results follow.
# Test: qHTS of TDP-43 Inhibitors: NCGC Sytravon Library Screen; further: 0% is about no effect; nearly all actives have a fitted effect of over 55% in size
# Conditions: yeast TDP-43 toxicity rescue, BacTiter-Glo growth, 24 h; series mostly up to 46.1 µM; growth rescue (activation): at the top concentration
# Summary of the method: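 TDP-43-expressing yeast, pregrown in raffinose, seeded at OD600 0.02 in galactose medium with compound for 24 hr at 30 deg C. Growth read by BacTiter-Glo luminescence, so rescue of toxicity appears as activation.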
row,Structure (SMILES),growth rescue (activation)
1,CCc1nnc(NC(=O)C2CC(=O)N(c3ccc4c(c3)OCCO4)C2)s1 (configuration not stated),inactive: -12%
2,Cc1ccc(S(=O)(=O)N2CCC[C@H]2C(=O)OCc2cc(=O)oc3cc(C)ccc23)cc1,inactive: 20.7%
3,O=C(COC(=O)c1ccc(-c2ccccc2)cc1)Nc1ccccc1-c1ccccc1,inactive: 11%
4,Fc1ccccc1NC(=S)Nc1ccc(CN2CCOCC2)cc1,inactive: -22.2%
5,NS(=O)(=O)c1ccc(N2CCN(CCOc3ccc(Cl)cc3)CC2)nc1,inactive: 7.6%
6,CCN(CC)S(=O)(=O)c1cccc(C(=O)N2CCCCC2)c1,inactive: -5.17%
7,Clc1ccc(-c2ncc3ccccn23)cc1,inactive: -0.0364%
8,Cc1ccccc1N(C(=O)CNC(=O)c1ccco1)C(C(=O)NC1CCCCC1)c1ccncc1 (configuration not stated),inactive: -2.6%
9,O=C(c1cc(S(=O)(=O)N2CCOCC2)ccc1Cl)N1CCN(c2ccccn2)CC1,inactive: 10.7%
10,Cc1cc([N+](=O)[O-])ccc1-c1ccc(/C=N/NC(=O)Cc2ccccc2)o1,inactive: 13.4%
11,CC1CCN(c2ccc(N3C(=O)C4CCCCC4C3=O)cc2[N+](=O)[O-])CC1 (configuration not stated),inactive: 12%
12,Cc1ccc(S(=O)(=O)N(C)C)cc1NC(=O)CN1CCCC1,inactive: 2.73%
13,CN(Cc1ccccc1)S(=O)(=O)c1ccc(Cl)c(C(=O)O)c1,inactive: -7.67%
14,COCCNC(=O)CSC1=N/C(=C/c2ccc(Cl)c(Cl)c2)C(=O)N1c1ccccc1F,inactive: 1.64%
15,CC(C)CN(C(=O)c1nn(C)c(=O)c2ccccc12)c1nc2ccccc2s1,inactive: -10.7%
16,CC(=O)N1CCC(=O)N(C(C)C)c2ccccc21,inactive: 5.41%
17,CC(=O)Nc1ccc(N(C(=O)c2ccccn2)C(C(=O)NC2CCCCC2)c2ccc(F)cc2)cc1 (configuration not stated),inactive: -12.3%
18,COc1ccc2c(c1)C=C(CN1CCC(CO)(CCc3ccccc3)CC1)CO2,inactive: -3.69%
19,CCOC(=O)N1CCN(CC(=O)Nc2ccc(F)cc2)CC1,inactive: 4.07%
20,C/C(Cc1ccccc1)=N\NC(=O)CNC(=O)c1ccc(Cl)cc1,inactive: 10.5%
21,CC(C)c1nnc(NC(=O)c2cc3ccccc3o2)s1,inactive: -3.41%
22,COCC(=O)N(Cc1cc2cc(C)ccc2[nH]c1=O)c1cccc(C)c1C,inactive: -7.85%
23,Cc1nc(SCC2(C)CC2(Cl)Cl)n[nH]1 (configuration not stated),inactive: -4.18%
24,COc1ccc(C2CC(=O)OC3=C2C(=O)CC(C)(C)C3)c(OC)c1 (configuration not stated),inactive: -0.559%

row,Structure (SMILES),growth rescue (activation)
1,CC(C)Oc1ccc(CCN=C(N)N=C(N)N)cc1Cl,inactive: 3.98%
2,CC(=O)Nc1c(Nc2ccccc2)c2ccccc2oc1=O,inactive: -11.6%
3,Cc1ccc(CNC(=O)CN(C(=O)C2(C)CC(=O)N=C3C=CC=CN32)c2cc(C)ccc2C)cc1 (configuration not stated),inactive: 18.3%
4,O=S(=O)(NC1CC1)c1ccc(Cl)cc1F,inactive: 19.2%
5,NC(N)=Nc1nc(-c2ccccc2)c2ccccc2n1,inactive: -7.94%
6,CN(Cc1ccc(F)cc1)C(=O)CN1C(=O)c2ccccc2S1(=O)=O,inactive: 17.1%
7,COc1ccc(-n2nc(C(=O)NCC(=O)N3CCC(C(N)=O)CC3)c3ccccc3c2=O)cc1OC,inactive: 6.87%
8,Cc1ccccc1-c1cc2nc(-c3ccc([N+](=O)[O-])cc3)cc(=O)n2[nH]1,inactive: 1.03%
9,CCOC(=O)C1C(c2ccccc2)C(C(=O)OCC)S(=O)(=O)C(CCN(CC)CC)S1(=O)=O (configuration not stated),inactive: -10.7%
10,COc1cccc(C(=O)OCC(=O)Nc2ccc3c(c2)OCCO3)c1,inactive: 4.43%
11,CNS(=O)(=O)c1cccc(C(=O)OCC(=O)Nc2ccc3ccccc3c2)c1,inactive: 3.18%
12,CCNC(=S)NNC(=O)c1ccc(OC)cc1,inactive: 2.49%
13,CN(C(=O)CSc1ncnc2sc3c(c12)CCCC3)C1CCS(=O)(=O)C1 (configuration not stated),inactive: 19.5%
14,CN(c1cccc(NS(=O)(=O)c2cccc([N+](=O)[O-])c2)c1)S(C)(=O)=O,inactive: -4.69%
15,CC(C)c1ccc(C(=O)Nc2ccc(CN3CCOCC3)cc2)cc1,inactive: -13.4%
16,O=C(COc1ccc([N+](=O)[O-])cc1)NCCc1nc2ccccc2[nH]1,inactive: 4.76%
17,CC(Sc1nnnn1C)C(=O)NC1CCCC1 (configuration not stated),inactive: 11.6%
18,Cc1cc(NC(=O)CSc2nc3c(C)ccc(C)c3cc2C#N)no1,inactive: 4.04%
19,Cc1ccc(NC(=O)CSc2n[nH]c(-c3ccncc3)n2)c(C)c1,inactive: -18.7%
20,Cc1ccsc1C(=O)Nc1cccc(S(=O)(=O)N(C)C)c1,inactive: 5.85%
21,Cc1ccc(C(=O)Nc2ccccc2C(=O)N2CCCCCC2)cc1,inactive: 19.4%
22,CCCCN1C(=O)c2ccc(C(=O)NCCN3C(=O)S/C(=C\c4cccnc4)C3=O)cc2C1=O,inactive: -2.16%
23,COc1ccc(-n2c(O)c(C=Nc3ccccc3)c3ccccc3c2=O)cc1,inactive: -6.2%

# — PubChem BioAssay AID1347073 (National Center for Advancing Translational Sciences (NCATS), 2019)
